Experimental data taken from PubChem BioAssay AID1508624 (National Center for Advancing Translational Sciences (NCATS), 2021).
Out of some 48,000 compounds screened, about 120 (0.25%) were called active. Not shown: some 4% with an inconclusive outcome. Calls follow the shape of the dose curve; as a rule, active = well fitted activation curve with a large enough effect; inconclusive = small, poorly fitted or top-dose-only effect, or another doubt; inactive = no such curve, though single readings can be large or run the other way. The list shows a part of the results.

Test: Primary qHTS for Identification of Small Molecule Activators of Huntingtin-Antisense Promoter Activity; also: nearly all actives have a fitted effect of over 55% in size
Settings: HEK293 HTT-AS promoter firefly luciferase reporter, 24 h; series mostly up to 57.5 µM; activity change, positive = activation: at the top concentration
Outline: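 Firefly luciferase signal from promoter-reporter HEK293 cells was scaled between vehicle (0%) and zero RLU (-100%). Compounds were tested at final concentrations of up to 57.5 uM over 24 h at 37 degrees C. PTC124 at 50 uM final served as control inhibitor.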

Activity change, positive = activation, inactive:
COc1ccccc1N1CCN(C(CNC(=O)C(=O)NCCN(C)C)c2cccnc2)CC1 (centres undefined) -4.84%, CC1=C(c2ccc(C(C)C)cc2)S(=O)(=O)N=C1N1CCN(c2ccc(F)cc2)CC1 -13.8%, O=C(CCCc1ccccc1)NC1CC(=O)N(c2ccc(Cl)cc2)C1 (centres undefined) -10.1%, COc1ccccc1C(=O)n1nc(-c2cccnc2)nc1NCc1ccccc1 13.4%, Cc1ccc(Cl)cc1NC(=O)c1ccc(NC(=O)N2CCSc3ncccc32)cc1 -14.8%, Cc1cccc(-c2nc3c4ccccc4nc(N4CCN(c5ccc(F)cc5)CC4)n3n2)c1 -4.11%, CC1=Nc2cc(C(=O)NC3CCCCC3)ccc2Sc2ccc(Cl)cc21 -38.3%, COc1ccccc1NC(=O)CSC1=Nc2ccccc2C2=NC(CC(=O)NCCc3ccccc3)C(=O)N12 (centres undefined) -26.6%, CCOc1ccc(Nc2c(S(=O)(=O)c3ccc(C)cc3)cnc3cc(OC)c(OC)cc23)cc1 -34.4%, COc1ccc(CCNC(=O)c2ccc3c(c2)sc2nc(-c4ccc(C)cc4)cn23)cc1OC -4.46%, CCc1ccccc1NC(=O)Cn1nnc(-c2nc(-c3ccncc3)no2)c1N -6.04%, COc1cc(NS(=O)(=O)c2ccc3c(c2)CC(=O)N3)cc(OC)c1OC -10.8%, Cc1ccc(NC(=O)C2CCN(S(=O)(=O)c3ccc4c(c3)CCCC(=O)N4)CC2)c(Cl)c1 -25.8%, O=C(NC1(C(F)(F)F)C(=O)Nc2c1c(=O)[nH]c(=O)n2CCc1ccccc1)c1ccc(Cl)cc1 (centres undefined) -1.65%, CCCCC(=O)Nc1ccc2nc(SCC(=O)N3CCOCC3)sc2c1 -4.46%, CCOc1ccc(NC(=O)CN2CCN(CC(=O)Nc3ccc(N(CC)CC)cc3)CC2)cc1 3.58%, COc1cc(NS(=O)(=O)c2ccc3[nH]c(=O)[nH]c3c2)cc(OC)c1 -12.1%, COc1cccc2c1Oc1ncccc1N(c1ccc(C(=O)NCc3ccccc3C)s1)C2 -24.5%, Cc1ccc(NC(=O)c2c(C)oc3ncn(C)c(=O)c23)cc1F 11.7%, O=C(CCNS(=O)(=O)c1ccc2c(c1)CCCC(=O)N2)Nc1cccc(Cl)c1 -13.2%, O=C(NCCc1ccccc1)c1ccc(CS(=O)Cc2ccc(Cl)cc2)o1 (centres undefined) -2.72%, COc1ccc(C(=O)c2c(N)c(-c3nc(-c4ccc5c(c4)OCO5)cs3)c3ccccn23)cc1 -4.63%, COC(=O)Cn1c(C2CC(=O)N(c3c(C)cccc3C)C2)nc2ccccc21 (centres undefined) -6.23%, Cc1cc(NC(=O)CCc2nc3cccnc3n2-c2ccccc2)ccc1Br -39%, O=C(Nc1ccc(F)cc1F)C1CCN(c2ncccn2)CC1 -7.28%, O=S(=O)(c1ccc(C2CCCCC2)cc1)N1CCN(c2ccc(Cl)c(Cl)c2)CC1 -8.34%, Cc1ccccc1NC(=O)Cn1cc(C(=O)c2ccco2)c2ccccc21 -24.2%, Cc1ccc(C)c(N2CCN(c3ncnc4c3nc3n4CCCC3)CC2)c1 -17.6%, CCc1ccc2nc(N(Cc3cccnc3)C(=O)c3ccc(C#N)cc3)sc2c1 16.9%, Cc1ccc(N2CCN(C(=O)c3nn(C)c4c3CS(=O)(=O)c3ccccc3-4)CC2)c(C)c1 -26.9%, CC(=O)Nc1ccc(NC(=O)c2oc3c(c2C)-c2nn(Cc4ccccc4Cl)cc2CC3)cc1 -39.3%, CCCCC(=O)Nc1ccc2nc(SCC(=O)N3CCc4ccccc43)sc2c1 -32.3%, O=C(CCn1c(=O)c2sccc2n(Cc2ccccc2F)c1=O)NCc1ccc2c(c1)OCO2 -9.27%, CCOC(=O)c1ccc(NC(=O)Cn2nc3c4ccccc4n(Cc4cccc(F)c4)cc-3c2=O)cc1 -7.53%, Cc1cccc(NC(=O)Cn2nc(-c3ccccc3)c3cnc4ccccc4c32)c1 -19.4%, CCOc1ccc(-n2cc(-c3ccccc3)c3c(NCCc4ccccc4)ncnc32)cc1 -14.6%, CCc1cccc(NC(=O)CCn2c(=O)c3cccn3c3cccnc32)c1 -1.43%, Cc1ccc(Nc2ccc3cc(S(=O)(=O)N4CCC(C)CC4)ccc3n2)c(Cl)c1 -23.7%, CCOC(=O)N1CCc2c(sc3c2c(=O)n(Cc2ccccc2)c(=O)n3CC(=O)Nc2cccc(CC)c2)C1 -18.7%, CCN(CC)CCOc1ccc(Nc2ncc3cc(-c4c(Cl)cccc4Cl)c(=O)n(C)c3n2)cc1 -33.4%, Cc1noc(-c2ccc(-c3noc(-c4ccc(F)cc4)n3)cc2)n1 -1.24% [at 11.5 µM, percent change from vehicle, -100% = no light], O=C(CCCn1c2ccccc2c(=O)c2ccccc21)Nc1cccc(Cl)c1 -35.2%, CCOC(=O)c1cccc(NC(=O)CCSCCc2ccccn2)c1 -10.9%, COc1cccc(CNC(=O)c2cc3c(-c4ccccc4F)nn(C)c3s2)c1 -37.8%, COc1cc(C2Nc3ccccc3-c3cc(C)nn32)ccc1O (centres undefined) -7.09%, Cc1ccc(NC(=O)Cn2nc(-c3ccccc3)nc(Cc3ccc(Cl)cc3)c2=O)cc1 1.43%, Cc1csc2nc(COC(=O)c3ccccc3NC(=O)c3cccc(Br)c3)cc(=O)n12 -45.3%, O=C(NCCc1ccc(Cl)cc1)c1c2c(nc3ccccc13)C(=O)N(C1CCCCC1)C2 -18.4%, O=S(=O)(c1ccc(Br)s1)N1CCN(c2cccc(C(F)(F)F)c2)CC1 -21.8%, COCCn1c(SCC(=O)Nc2cc(Cl)ccc2OC)nc2c([nH]c3ccccc32)c1=O -20.5%, Cc1cccc(Cn2cc(S(=O)(=O)c3cccc(Cl)c3)c(=O)c3cc(F)c(N4CCOCC4)cc32)c1 -10.4%, O=C1c2ccccc2C(=O)C1c1ccc(Br)cc1 25.6%, CCOC(=O)c1c(C)[nH]c(C)c1S(=O)(=O)N(C)CC(=O)Nc1ccc(OC)cc1 -0.2%, COc1ccc(CC(=O)Nc2c(C(=O)N3CCN(c4ccccc4)CC3)oc3ccccc23)cc1OC -29.5%, Cn1c(=O)c2nc(SCC(=O)Nc3ccc(OC(F)(F)F)cc3)n(C)c2n(C)c1=O 8.02%, CCN(CC)c1ncnc2c1cnn2-c1cc(Cl)ccc1C 6.26%, COc1ccc(-c2nc(CNC(=O)NC3CCCCC3)c(C)o2)cc1 -28.2%, COc1cc(C(CC(=O)Nc2ccc(C)c(F)c2)N2Cc3ccccc3C2=O)cc(OC)c1OC (centres undefined) -14.2%, CCOc1ccccc1NC(=O)C1CCN(S(=O)(=O)c2c(C)noc2/C=C/c2ccco2)CC1 -24.4%, O=C1OCC2=C1C(c1cccc(Cl)c1)CC(=O)N2c1ccc(C(F)(F)F)cc1 (centres undefined) -20.1%, COc1cc(OC)cc(-c2cc3nc(C)c(CCC(=O)NCCc4cccc(C)c4)c(C)n3n2)c1 -70.8%, COc1cc(NC(=O)Cn2nc(C(F)(F)F)c3c2CCC3)cc(OC)c1OC -39.2%, COc1ccc(OC)c(CNC(=O)c2ccc(N3Cc4ccccc4Oc4ncccc43)s2)c1 -21.2%, O=C(CCn1c(=O)c2ccccc2n(CC(=O)Nc2cccc(F)c2)c1=O)NCCc1ccccc1 -5.06%, CCn1c(-c2nonc2N)nc2c(C#CC(C)(C)O)ncc(OC[C@H]3CCCNC3)c21 -26.4%, CC1CCCN(CCCNC(=O)c2cc(Sc3ccc(F)cc3)nc3ccccc23)C1 (centres undefined) -23.6%, CCc1ccc(NC(=O)CSc2ccnc(=O)[nH]2)cc1 14.2%, O=C(NCCc1ccccc1)c1ccc2c(c1)N(Cc1ccc(Cl)cc1)C(=O)CS2 -33.3%, CC(=NNC(=S)N1CCC1)c1ccccn1 -35.9%, Cc1nn(C)c(C)c1S(=O)(=O)N(CC(=O)NCCc1ccccc1)c1ccc(C(C)C)cc1 -10.7%, Cc1ccc(C(=O)c2cn(Cc3cccc(Cl)c3)c3nc(C)ccc3c2=O)cc1 -27.2%, CCCCNC(=O)c1nn(C)c2c1CSc1ccccc1-2 18.7%, Cc1cc2c(cc1S(=O)(=O)NCc1ccc(F)cc1)n(C)c(=O)c(=O)n2C -23%, O=C(CSCc1ccc(F)cc1)N1CCN(c2ccccc2F)CC1 22.6%, Cc1cccc(N2C(=O)CC(c3ccc(F)cc3)C3=C2COC3=O)c1 (centres undefined) -5.95%, COc1ccc(NC(=O)c2ccco2)cc1NC(=O)COc1ccc(C)c(C)c1 -16.8%, CCCNC(=O)[C@H]1O[C@H]1C(=O)N[C@H](C(=O)N1CCC[C@@H]1C(=O)OC)C(C)CC (some centres undefined) -42.7%, COc1ccc(CNC(=O)CCNS(=O)(=O)c2ccc3c(c2)oc(=O)n3C)cc1 -7.64%, CC1(C)O[C@H]2C[C@@H]3[C@H]4CCC5=CC(=O)C=C[C@]5(C)[C@@]4(F)[C@@H](O)C[C@]3(C)[C@]2(C(=O)CO)O1 -18.3%, Cc1ccccc1C(=O)Nc1cc(C)c(O)c(-c2nc3ccccc3o2)c1 1.96%, CCCCCCn1nnc2sc(-c3ccccc3)cc2c1=O 14.8%, CC1CCN(CC2CCN(C(=O)NCc3ccccc3)CC2)CC1 -13.5%, CCC1CN(C(=O)Nc2ccccc2F)c2cc(C)ccc2O1 (centres undefined) -6.43%, COc1cc(C)ccc1OCCSc1nc2ccc(NC(=O)c3ccco3)cc2s1 -33%, COc1ccc(C2CC(=O)c3cc(-c4nc(-c5cccc([N+](=O)[O-])c5)cs4)c(=O)n(-c4ccccc4)c3C2)cc1 (centres undefined) -9.51%, CCN1c2ccccc2-c2nc(SCC(=O)Nc3cccc(C)c3C)ncc2S1(=O)=O -18.5%, CCn1cc(C(=O)N(C)Cc2ccccc2)c(=O)c2cc(S(=O)(=O)N3CCc4ccccc4C3)ccc21 -16.7%, COc1ccc(OC)c(NC(=O)CSc2nc(=O)n(CCN(C)C)c3c2CCC3)c1 -7.82%, COc1cc(NC(=O)CC2C(=O)N(c3ccccc3)C(=O)N2Cc2ccc(F)cc2)cc(OC)c1 (centres undefined) -12%, CCc1ccccc1NC(=O)N1CCOc2ccccc21 -24.3%, O=C(Cn1ncc2c([nH]c3ccccc32)c1=O)NCCCN1CCN(c2ccc(F)cc2)CC1 -16%, CCc1ccc(-n2c(=O)c3c4c(sc3n(Cc3ccccc3C#N)c2=O)CCCC4)cc1 5.85%, CCCn1c2ccccc2c2cnn(CC(=O)Nc3cc(C)c(Cl)cc3OC)c(=O)c21 -7.89%, CC1CCc2c(sc(NC(=O)Cc3ccccc3)c2C(=O)Nc2ccc(Cl)cc2)C1 (centres undefined) -3.31%
